Assay results from the supplement of paper PMC12217912.
Some of the results follow. The full chains were built here from the parent and the listed change. Values near 0.05 are background.

B1: TEV protease; numbered along this chain (parent)
chain: MGESLFKGPRDYNPISSSICHLTNESDGHTTSLYGIGFGPFIITNKHLFRRNNGTLVVQSLHGVFKVKDTTTLQQHLVDGRDMIIIRMPKDFPPFPQKLKFREPQREERICLVTTNFQTKSMSSMVSDTSCTFPSGDGIFWKHWIQTKDGQCGSPLVSTRDGFIVGIHSASNFTNTNNYFTSVPKNFMELLTNQEAQQWVSGWRLNADSVLWGGHKVFMVKPEEPFQPVKEATQL

Variants of: B1
Test: raw area under fraction-flipped curve 0-4 h after induction (AUC4h, not background-subtracted), DNA-recorder readout of cleavage of the substrate (dimensionless); higher = more cleavage of the substrate by the protease variant
Conditions: temperature: 34 °C; time window: 0-4 h after rhamnose induction
Procedure: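 In vivo DNA recorder in E. coli TOP10(DE3) ΔrhaA at 34 °C. Each TEVp single-site mutant (parent TEVp 0) is paired with a single-site variant of the 7-mer TEVs (canonical ENLYFQ|S). The substrate sits between flexible linkers in a Bxb1-sfGFP-TEVs-SsrA fusion, so cleavage stabilises Bxb1 and speeds flipping of a recombination array, read by NGS. The value is the raw area under the fraction-flipped curve over 0-4 h after rhamnose induction (AUC4h), with ≥20 reads per time point. It is not background-subtracted; inactive controls average about 0.047.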
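Also: Bxb1 expression induced with 0.2% (w/v) L-rhamnose at OD600 near 0.5, cultures sampled hourly, flipped fraction per protease–substrate barcode pair counted by paired-end Illumina sequencing.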

Variant | area with substrate ENAYFQS | area with substrate ENDYFQS | area with substrate ENEYFQS | area with substrate ENFYFQS | area with substrate ENGYFQS | area with substrate ENHYFQS | area with substrate ENIYFQS | area with substrate ENKYFQS | area with substrate ENPYFQS | area with substrate ENQYFQS | area with substrate ENRYFQS | area with substrate ENSYFQS | area with substrate ENTYFQS | area with substrate ENYYFQS | area with substrate ENCYFQS | area with substrate ENNYFQS | area with substrate ENVYFQS | area with substrate ENWYFQS | area with substrate ENMYFQS
MGESLFKGPRDYNPISSSICHLTNESDGHTTSLYGIGFGPFIITNKHLFRRNNGTLVVQSLHGVFKVKDTTTLQQHLVDGRDMIIIRMPKDFPPFPQKLKFREPQREERICLVTTNFQTKSMSSMVSDTSCTFPSGDGIFWKHWIQTKDGQCGSPLVSTRDGFIVGIHSASNFTNTNNYFTSVPKNFMELLTNQEAQQWVSGWRLNADSVLWGGHKVFMVKPEEPFQPVKEACQL [T233C] | 0.0596 | 0.0631 | 0.0625 | 0.0523 | 0.0552 | 0.0663 | 0.0951 | 0.0644 | 0.0662 | 0.0635 | 0.0479 | 0.0599 | 0.0658 | 0.0662 |  |  |  |  | 
MGESLFKGPRDYNPISSSICHLTNESDGHTTSLYGIGFGPFIITNKHLFRRNNGTLVVQSLHGVFKVKDTTTLQQHLVDGRDMIIIRMPKDFPPFPQKLKFREPQREERICLVTTNFQTKSMSSMVSDTSCTFPSGDGIFWKHWIQTKDGQCGSPLVSTRDGFIVGIHSASNFTNTNNYFTSVPKNFMELLTNQEAQQWVSGWRLNADSVLWGGHKVFMVKPEEPFQPVKEATCL [Q234C] | 0.0664 | 0.0649 |  | 0.0608 |  | 0.0594 |  |  | 0.0562 | 0.0647 |  | 0.0682 | 0.0622 | 0.0648 | 0.0433 | 0.0621 | 0.0625 | 0.0554 | 
MGESLFKGPRDYNPISSSICHLTNESDGHTTSLYGIGFGPFIITNKHLFRRNNGTLVVQSLHGVFKVKDTTTLQQHLVDGRDMIIIRMPKDFPPFPQKLKFREPQREERICLVTTNFQTKSMSSMVSDTSCTFPSGDGIFWKHWIQTKDGQCGSPLVSTRDGFIVGIHSASNFTNTNNYFTSVPKNFMELLTNQEAQQWVSGWRLNADSVLWGGHKVFMVKPEEPFQPVKEATDL [Q234D] | 0.0564 | 0.0608 | 0.0382 |  | 0.0551 | 0.0481 |  |  |  |  | 0.0546 | 0.0678 | 0.0733 |  | 0.0659 |  | 0.0651 |  | 0.0877
MGESLFKGPRDYNPISSSICHLTNESDGHTTSLYGIGFGPFIITNKHLFRRNNGTLVVQSLHGVFKVKDTTTLQQHLVDGRDMIIIRMPKDFPPFPQKLKFREPQREERICLVTTNFQTKSMSSMVSDTSCTFPSGDGIFWKHWIQTKDGQCGSPLVSTRDGFIVGIHSASNFTNTNNYFTSVPKNFMELLTNQEAQQWVSGWRLNADSVLWGGHKVFMVKPEEPFQPVKEATML [Q234M] | 0.0676 | 0.0867 |  |  | 0.0592 |  |  |  |  | 0.0588 |  | 0.063 | 0.0602 |  | 0.0623 |  | 0.0632 |  | 
MGESLFKGPRDYNPISSSICHLTNESDGHTTSLYGIGFGPFIITNKHLFRRNNGTLVVQSLHGVFKVKDTTTLQQHLVDGRDMIIIRMPKDFPPFPQKLKFREPQREERICLVTTNFQTKSMSSMVSDTSCTFPSGDGIFWKHWIQTKDGQCGSPLVSTRDGFIVGIHSASNFTNTNNYFTSVPKNFMELLTNQEAQQWVSGWRLNADSVLWGGHKVFMVKPEEPFQPVKEATQA [L235A] | 0.0316 | 0.067 | 0.068 |  | 0.0613 | 0.0402 | 0.0979 |  |  | 0.0435 |  | 0.0585 | 0.09 |  |  | 0.0546 | 0.0689 | 0.0605 | 
MGESLFKGPRDYNPISSSICHLTNESDGHTTSLYGIGFGPFIITNKHLFRRNNGTLVVQSLHGVFKVKDTTTLQQHLVDGRDMIIIRMPKDFPPFPQKLKFREPQREERICLVTTNFQTKSMSSMVSDTSCTFPSGDGIFWKHWIQTKDGQCGSPLVSTRDGFIVGIHSASNFTNTNNYFTSVPKNFMELLTNQEAQQWVSGWRLNADSVLWGGHKVFMVKPEEPFQPVKEATQI [L235I] | 0.0526 | 0.0672 | 0.0598 | 0.0601 | 0.068 | 0.0616 | 0.0931 |  | 0.0545 | 0.0538 |  | 0.0349 |  | 0.0613 |  |  |  |  | 
MGESLFKGPRDYNPISSSICHLTNESDGHTTSLYGIGFGPFIITNKHLFRRNNGTLVVQSLHGVFKVKDTTTLQQHLVDGRDMIIIRMPKDFPPFPQKLKFREPQREERICLVTTNFQTKSMSSMVSDTSCTFPSGDGIFWKHWIQTKDGQCGSPLVSTRDGFIVGIHSASNFTNTNNYFTSVPKNFMELLTNQEAQQWVSGWRLNADSVLWGGHKVFMVKPEEPFQPVKEATQN [L235N] | 0.069 |  |  |  | 0.0906 | 0.0492 |  |  |  | 0.0653 |  | 0.0626 | 0.0567 |  |  |  | 0.0787 |  | 
MGESLFKGPRDYNPISSSICHLTNESDGHTTSLYGIGFGPFIITNKHLFRRNNGTLVVQSLHGVFKVKDTTTLQQHLVDGRDMIIIRMPKDFPPFPQKLKFREPQREERICLVTTNFQTKSMSSMVSDTSCTFPSGDGIFWKHWIQTKDGQCGSPLVSTRDGFIVGIHSASNFTNTNNYFTSVPKNFMELLTNQEAQQWVSGWRLNADSVLWGGHKVFMVKPEEPFQPVKEATQS [L235S] | 0.0683 | 0.0752 |  |  | 0.0636 | 0.0611 |  | 0.0638 |  | 0.0779 |  |  |  |  |  |  |  |  | 
MGESLKKGPRDYNPISSSICHLTNESDGHTTSLYGIGFGPFIITNKHLFRRNNGTLVVQSLHGVFKVKDTTTLQQHLVDGRDMIIIRMPKDFPPFPQKLKFREPQREERICLVTTNFQTKSMSSMVSDTSCTFPSGDGIFWKHWIQTKDGQCGSPLVSTRDGFIVGIHSASNFTNTNNYFTSVPKNFMELLTNQEAQQWVSGWRLNADSVLWGGHKVFMVKPEEPFQPVKEATQL [F6K] |  | 0.0557 | 0.08 |  |  | 0.0564 | 0.118 |  |  |  | 0.0568 |  |  |  | 0.078 |  |  |  | 
MGESLFIGPRDYNPISSSICHLTNESDGHTTSLYGIGFGPFIITNKHLFRRNNGTLVVQSLHGVFKVKDTTTLQQHLVDGRDMIIIRMPKDFPPFPQKLKFREPQREERICLVTTNFQTKSMSSMVSDTSCTFPSGDGIFWKHWIQTKDGQCGSPLVSTRDGFIVGIHSASNFTNTNNYFTSVPKNFMELLTNQEAQQWVSGWRLNADSVLWGGHKVFMVKPEEPFQPVKEATQL [K7I] |  |  | 0.0595 | 0.0697 |  |  |  | 0.0486 | 0.0731 |  |  |  | 0.0607 | 0.0795 | 0.0689 | 0.0767 | 0.0613 |  | 0.073
MGESLFKGPRDYNPISSSICHLTNESDGHVTSLYGIGFGPFIITNKHLFRRNNGTLVVQSLHGVFKVKDTTTLQQHLVDGRDMIIIRMPKDFPPFPQKLKFREPQREERICLVTTNFQTKSMSSMVSDTSCTFPSGDGIFWKHWIQTKDGQCGSPLVSTRDGFIVGIHSASNFTNTNNYFTSVPKNFMELLTNQEAQQWVSGWRLNADSVLWGGHKVFMVKPEEPFQPVKEATQL [T30V] |  | 0.0281 | 0.108 |  | 0.0741 | 0.0435 |  |  |  |  |  | 0.0743 |  |  | 0.0693 | 0.0536 |  | 0.0723 | 
